# Measurements published in the supplement of paper PMC10126150.
# Values marked as one replicate rest on one cluster of the flow cell; about a third of the high ones do not repeat.
# Test system: ATP
# Test: switch fluorescence ratio, 500 uM ATP over buffer (Cy3 cluster intensity, sum of 5 cycles each) (fold (ratio)); higher = stronger signal-on switching upon ATP binding; sequences stand for … in TCGTCGGCAGCGTCAGATGTGTATAAGAGACAGTTTTTTTTTTTTTTTTTTTTTTTTT…TC
# Details: aptamer strand: ATP DNA aptamer (quencher-CACCTGGGGGAGTATTGCGGAGGAAGG + anchor), 100 nM annealed; ATP concentration: 500 uM; one replicate
# Summary of the method: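 Exposure to 500 uM ATP lasted 15 min at 22 °C before imaging, and a selection-buffer image was taken beforehand, for Cy3-labelled switching-strand clusters on a modified Illumina MiSeq flow-cell annealed to 100 nM quencher-labelled ATP aptamer. Five buffer/ATP cycles were run with NaOH stripping and re-annealing between them. The fluorescence ratio per cluster is summed target-cycle over summed buffer-cycle Cy3 intensity, averaged per switch-domain sequence. Clusters outside 100-1000 RFU were excluded.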
row,Sequence,switch fluorescence ratio
1,TTACAATGCT,1.09
2,TAGCGCCTCT,0.983
3,CTGGGTAGC,0.997
4,CGCCGTTGTT,0.975
5,CTCCGTTGG,1.66
6,TACGTTTTAT,1.04
7,GACATGGAGG,0.997
8,GCACCTCTAC,1.23
9,GAGAGGAACA,1.02
10,TCCCAGTTGA,1.21
11,TGATCGTCAG,0.99
12,CTGTGCTTCT,1.01
13,GCTTAGAGGG,1
14,CGGGTGACGT,1.02
15,CCATTCCCCG,1.97
16,TATGGTGATG,0.986
17,TATTTGCCTT,0.975
18,GTCGGCCATC,0.972
19,GGCGATACAG,1.09
20,CAACCCATAA,1.01
21,AGCTTGCCTT,1.01
22,AGAGGCTATG,1.02
23,TCTTGTACGC,1.03

row,Sequence,switch fluorescence ratio
1,CTAATCGGCG,1.01
2,TTAGTTCGGA,0.939
3,ATTCTGCATG,1.01
4,TTCAACAGTT,0.994
5,CGCGGGTCTG,1.01
6,CACGACGTCT,1.02
7,TCTGCCGACC,1.27
8,TCAGATTCAG,1.03
9,GGGCGTTCCG,1
10,ATAAGCTGGG,1.06
11,AAAGGACCTA,1.01
12,AGGATTCATC,0.968
13,GCCGATTCGT,1.01
14,AGAGCAGAGA,0.954
15,GCCGGCTAAA,1.01
16,GGATGAATGA,0.99
17,TTTGAAAGCA,0.972
18,AATACAACAG,1.23
19,GAGGTGTGGC,1.09
20,GGTGGGCGCA,0.987
21,TTGACGGGTC,1.61
22,CATTGTCTCG,0.955
23,GCGAGAAAGG,0.965

row,Sequence,switch fluorescence ratio
1,GCATACACAT,1.05
2,ATGCTAGGAC,1.06
3,GCCCGAAAGT,1.03
4,CACGAGGTTA,0.998
5,TAGGGGCATA,1.04
6,CGCACTCCGT,1.59
7,ACTCCCTGCG,1.59
8,CATTGCAATA,4.3
9,TACGAAAGCG,1.06
10,ATGTAAACCT,3.05
11,ATGCTTGAGA,0.993
12,AAGGCCAGGG,1.04
13,TAGGACTTGT,0.976
14,TACCTAC,1.43
15,TAGGGATGAC,1.02
16,ATTTACTTTA,1.07
17,ACAGTGTCGC,1
18,GATCTATATA,1.01
19,GATGCGATGG,1.72
20,CACACGAGCG,0.976
21,CGATTCAGTT,1.01
22,CTCCCTGGTC,1.71
23,GAAGGGGTA,1.11

row,Sequence,switch fluorescence ratio
1,CGGATGGCCC,0.958
2,GTCGGTGCTC,1.03
3,GTGAAAGAGC,0.952
4,AAGTACAGT,1.32
5,TGAAGTTAAT,1.03
6,CTGGTTGGTG,1.1
7,TTCTTCATTG,0.954
8,TCAAGCATGG,0.996
9,AGATGTGCAT,0.976
10,ACACGAACGA,1.49
11,GGTTGTCTTC,0.985
12,ATGTCTTGGA,0.99
13,AGAGAACTGT,0.93
14,ACGATGTTAT,1.03
15,TAAAAGGTAG,0.95
16,TGTGTGCTTA,0.984
17,ACTATTGTAT,1.05
18,CAGTTTGTAT,0.939
19,TGCACATTAG,1.06
20,GAGAATTCGG,1.03
21,TAGGTTCAAG,1.01
22,TGTAGGCGCT,1.02
23,GCGGCCCGGG,1.07

row,Sequence,switch fluorescence ratio
1,ATTTTCAGC,0.998
2,TTTGCCCGGG,1.34
3,TCACTCGGAG,1.02
4,TTTGTCATAG,1.03
5,GAGCGGTGGG,1.02
6,GAGCCCAGTT,1.09
7,TCAATTTTAT,1.03
8,GCATCTAGA,1.07
9,TCGCCAATCA,1.09
10,CCATTTAGCC,0.972
11,TACGAGGGCC,1.08
12,TAAAAAGGTT,0.952
13,TTTGGTCCTC,1.06
14,TCACGAAGTT,0.959
15,CCTGGTTGAT,1.02
16,CCATGTGAG,0.996
17,AGGATATAGA,0.964
18,TGGTTAAGAC,0.985
19,CGAGAACGGC,1.01
20,CGCACCGGG,0.981
21,CTGTATACCG,1.04
22,TAAAGACTTG,0.955
23,CGTGTGCTCA,1.04

row,Sequence,switch fluorescence ratio
1,AGTAGGCATG,0.906
2,TCGAGGGATT,0.987
3,ATCTTTTTTT,1.01
4,TTTAGTTCT,0.985
5,GCATGAGGCT,1.01
6,ATTACGGCCG,1.04
7,ATGGTTAAAC,1.02
8,AGTGTAGCTG,1
9,CTAATCTTTC,1.14
10,CTGCATAAG,1.17
11,CGAAGTAGC,1.22
12,GTTGTAGCGA,1.1
13,TATTCTGGTG,0.978
14,GCGTTATGCT,1.03
15,CGGCAGTCTT,1
16,TAAACGCTAA,1.18
17,AGATGAAGAC,0.997
18,AACGAAACGG,1.05
19,GTTTATTCCA,0.966
20,GTAATCCCAA,1.55
21,AGGGTAGGCA,1.01
22,GCCTCAAGTG,1.03
23,CGCGTTCTGA,1.03

row,Sequence,switch fluorescence ratio
1,AAGATGGATG,0.952
2,ACATGAGGAA,0.959
3,GAAGTATTAA,0.971
4,TAGATGGAG,1.06
5,GTTCGTTTTC,0.998
6,TACCTGGCGT,0.964
7,CCGTTCCGAA,1.62
8,TTATAAGGAC,1.05
9,AGCGACCGTC,1.01
10,ATCTGAACGA,0.965
11,ATGGAGACAA,1.08
12,ACAGGACTTC,1.03
13,GATGGGTGGG,0.998
14,AGGTTGGAAG,0.983
15,CGTGAGTATG,1.04
16,CGCACGTACA,1.68
17,TCGTTCGTGC,1.06
18,CTAAAAGCCG,0.978
19,CTGAGCTCGT,1.04
